# Measured values: PubChem BioAssay AID686978 (National Center for Advancing Translational Sciences (NCATS), 2013)
# Hit rate of the full screen: of about 420,000 compounds, about 64,000 (15%) were called active. Inconclusive means that the source gave no clear call. Such entries were picked first, then a sample of the others. The call rests on the fitted dose curve; in most records, active means well fitted inhibition curve with a large enough effect; inconclusive means small, poorly fitted or top-dose-only effect; inactive means flat fitted curve, though single readings scatter. Potencies of inconclusive entries are left out as doubtful fits.
# Assay: qHTS for Inhibitors of human tyrosyl-DNA phosphodiesterase 1 (TDP1): qHTS in cells in absence of CPT; further: nearly all actives have a fitted effect of over 55% in size
# Conditions: DT40 Tdp1-/- hTDP1 cells, no CPT, ATP luminescence, 48 h; activity change, negative = growth inhibition: at 46.2 µM (top of the series)
# In short: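 Seeded 400 DT40-hTDP1 cells/well (vehicle DMSO, no 20 nM CPT); pinned compounds; ≥48 hr at 37 °C; CellTiter-Glo luminescence as viability measure.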
# On the % scale 0 is the no-effect control and ±100 the full control effect; potency means the concentration at half of the fitted maximal effect; tags describe the fitted curve by direction and shape.
SMILES,Potency,"activity change, negative = growth inhibition"
COC(=O)C1=C(C)NC(C)=C([N+](=O)[O-])[C@@H]1c1ccccc1C(F)(F)F,active: 29.9 µM,–
CCOC(=O)N1CCN(C(=O)Nc2ccc(Cl)cc2Cl)CC1,inactive,–
COc1ccc(NC(=O)CN(C)C(=O)/C=C/c2ccc(OCc3ccccc3)cc2)cc1,"inconclusive [inhibitor, partial curve]",–
C=C1C(=O)OC2C=C(CO)CCC=C(CO)CC(OC(=O)C(C)C)C12 (configuration not stated),active: 2.91 µM,–
CCOc1ccc(C(C)=O)cc1CSc1nnc(-c2cccs2)n1CC1CCCO1 (configuration not stated),active: 18.4 µM,–
CCc1ccccc1NS(=O)(=O)c1ccc(SC)cc1,"inconclusive [inhibitor, partial curve]",–
O=[N+]([O-])c1cc2c(cc1/C=N/n1c(-c3ccccn3)n[nH]c1=S)OCO2,"inconclusive [inhibitor, full curve]",–
Nc1c(OS(=O)(=O)c2ccccc2)cccc1OS(=O)(=O)c1ccccc1,–,inconclusive: -29.3% [inhibitor]
Cc1nnc(NC(=O)C2CC(=O)N(c3ccccc3)C2)s1 (configuration not stated),inactive,–
Cc1ncc([N+](=O)[O-])n1Cc1ccc(Cl)cc1,inactive,–
CCC1Oc2ccc(C)cc2N(CC(=O)NCCc2ccccc2)C1=O (configuration not stated),inactive,–
COc1ccc(OC)c(-c2csc(NC(=O)CSc3ccccc3)n2)c1,active: 13 µM,–
COc1ccc(Br)cc1CN(C)CC(=O)Nc1cccc(S(N)(=O)=O)c1,inactive,–
COc1cccc(CNC(=O)CCCc2c[nH]c3ccccc23)c1,"inconclusive [inhibitor, single point]",–
CCc1nnc(NC(=O)CSc2nc(C)nc3c2c(=O)n(C)c(=O)n3C)s1,inactive,–
Nc1nc(SCc2ccc(F)cc2)ns1,inactive,–
Cc1ccc(-n2nc3ccc(NC(=O)c4cccc([N+](=O)[O-])c4C)cc3n2)cc1,"inconclusive [inhibitor, partial curve]",–
COc1ccc(OC)c(NS(=O)(=O)c2ccc(SC)cc2)c1,active: 16.4 µM,–
CCCCN1C[C@H](Cc2ccccc2)[C@@H](CC(=O)NC)C1=O,inactive,–
CCOc1ccc(CCNC(=O)CSc2cc(=O)n(CC)c3ccccc23)cc1OCC,"inconclusive [inhibitor, partial curve]",–
CCOC(=O)C1(O)CC(C)=NN1C(=O)c1cccc(Br)c1 (configuration not stated),"inconclusive [inhibitor, single point]",–
Cn1c(N2CCOCC2)c(/C=N/O)c2ccccc21,"inconclusive [inhibitor, single point]",–
COc1ccc(C(CNc2ccc(S(C)(=O)=O)cc2[N+](=O)[O-])N(C)C)cc1OC (configuration not stated),"inconclusive [inhibitor, full curve, poor fit]",–
Cc1ccc(CNc2nc3ccc(C)cc3n3cnnc23)cc1,"inconclusive [inhibitor, single point]",–
c1ccc(N2CCN(c3ncnc4c3oc3ccccc34)CC2)cc1,"inconclusive [inhibitor, single point]",–
Cc1ccc(NC(=O)CCCN2C(=O)COc3ccc(C)cc32)c(Cl)c1,active: 7.31 µM,–

SMILES,Potency,"activity change, negative = growth inhibition"
O=C1CCN(CCCN2CCC(=O)N(Cc3ccccc3)C2=S)C(=S)N1Cc1ccccc1,"inconclusive [inhibitor, single point]",–
CCCCC#Cc1nc(NC)c2ncn([C@@H]3O[C@@H](CO)[C@H](O)[C@H]3O)c2n1,inactive,–
Cc1cc(S(=O)(=O)Nc2ccc(N(C)C)cc2)c(C)s1,"inconclusive [inhibitor, single point]",–
COc1cccc(CCC(=O)Nc2cccc(S(=O)(=O)N3CCCC3)c2)c1OC,"inconclusive [inhibitor, single point]",–
Cc1ccc(C2=NN(C(=O)CN3CCN(C4CCS(=O)(=O)C4)CC3)C(c3ccco3)C2)cc1 (configuration not stated),"inconclusive [inhibitor, partial curve, poor fit]",–
COc1ccc(CN2CCCC(C(=O)N3CCCC3)C2)c(OC)c1OC (configuration not stated),inactive,–
O=C(CC1CCS(=O)(=O)C1)Nc1ccc[nH]c1=O (configuration not stated),inactive,–
COc1ccccc1/C=C1\C=Cc2ccccc21,"inconclusive [inhibitor, single point]",–
Cc1cc(C)cc(NC(=O)c2ccc(CSc3nnnn3C)cc2)c1,inactive,–
CCCC(=O)NCC(c1cccs1)S(=O)(=O)c1ccc(Cl)cc1 (configuration not stated),inactive,–
NC(=O)c1c(N)sc(=S)n1-c1ccccc1,–,inconclusive: -37.5% [inhibitor]
COc1ccc(-c2nc3ccc(C)cn3c2Cc2cccc(F)c2)cc1OC,active: 20.6 µM,–
CCOc1cc(N2CCOCC2)c(OCC)cc1NC(=O)c1oc2ccccc2c1C,"inconclusive [inhibitor, single point]",–
COc1ccc(-c2cnc(C)o2)cc1S(=O)(=O)Nc1cccc(C(F)(F)F)c1,"inconclusive [inhibitor, single point]",–
CCOC(=O)c1cnn2c(C(F)(F)F)cc(-c3ccc(Br)cc3)nc12,"inconclusive [inhibitor, single point]",–
CCOC(=O)C1CCN(S(=O)(=O)c2ccc(CC)cc2)CC1,"inconclusive [inhibitor, single point]",–
CCCc1nc2oc3c(NCc4ccccn4)ncnc3c2c2c1COC(C)(C)C2,active: 14.6 µM,–
CSc1ccc(S(=O)(=O)Nc2ccc(F)cc2)cc1,"inconclusive [inhibitor, partial curve]",–
COc1cccc(Nc2nc(C(N)Cc3ccc(C(F)(F)F)cc3)cs2)n1 (configuration not stated),active: 11.6 µM,–
COc1ccc(Cl)cc1S(=O)(=O)N1CCCc2ccccc21,inactive,–
CC12CCC(=O)N1C(C(=O)Nc1nnc(SCc3ccccc3F)s1)CS2 (configuration not stated),inactive,–
Cc1ccc(SCC(=O)O/N=C(\N)c2cccc([N+](=O)[O-])c2)cc1,–,inconclusive: -33.9% [inhibitor]
COC(=O)Cc1c(C)c2ccc3c(c2oc1=O)CN(Cc1ccc(C)cc1)CO3,"inconclusive [inhibitor, single point]",–
CCOc1ccccc1C(=O)Nc1ccc(-n2nncc2C(C)(C)C)cc1,active: 14.6 µM,–
COc1ccccc1N1CCN(C2CCCCC2NS(=O)(=O)c2ccccc2)CC1 (configuration not stated),active: 16.4 µM,–
COc1ccc(-n2nnnc2SCC(=O)NCCc2ccccc2)cc1,"inconclusive [inhibitor, single point]",–

SMILES,Potency,"activity change, negative = growth inhibition"
O=C(NNc1c2ccccc2nc2ccccc12)c1ccc(Cl)cc1,active: 11.6 µM,–
Cc1ccccc1-c1noc(CSc2nc(-c3ccc(F)cc3)cc(=O)[nH]2)n1,inactive,–
O=C(Cn1cc(C(F)(F)F)cc(Cl)c1=O)NCCc1ccccc1,inactive,–
COc1cccc(C(C(=O)NC2CCCCC2)N(C(=O)Cc2cccs2)c2ccc(-n3cnnn3)c(OC)c2)c1 (configuration not stated),"inconclusive [inhibitor, partial curve]",–
Cc1sc2ncn3ncnc3c2c1C,inactive,–
COc1ccc(NC(=S)N(CCCN2CCCC2)Cc2cccs2)cc1,inactive,–
OCC(O)C1OC(Oc2ccccc2)C(O)C(O)C1O (configuration not stated),inactive,–
O=C(COc1ccccc1)NCCS(=O)(=O)N1CCN(c2ccccc2)CC1,"inconclusive [inhibitor, single point]",–
COc1cc(C2NC(=O)NC(C)=C2C(=O)OCc2ccccc2)ccc1O (configuration not stated),"inconclusive [inhibitor, single point]",–
O=C(c1csnn1)N1CCC2(CC1)CCN(c1ccccn1)CC2,"inconclusive [inhibitor, single point]",–
O=C(Nc1ccc(OCc2cc(=O)n3c4c(sc3n2)CCCC4)cc1)c1ccc(F)cc1,inactive,–
CC(C)(C)NC(=O)NC(=O)CN1c2cccc3cccc(c23)S1(=O)=O,inactive,–
O=S1(=O)CCN2C(Cc3ccc(SC(F)F)cc3)=CSC2=N1,–,inconclusive: -33.5% [inhibitor]
N#Cc1ccc(NC(=S)N2CCC3CC2c2cc(-c4ccc5c(c4)OCO5)ccc23)cc1 (configuration not stated),"inconclusive [inhibitor, single point]",–
Cc1cc(C)c(-n2nnnc2SC(C)C)c(C)c1,inactive,–
O=C(c1cc(Cl)ccc1F)N1CCCC(Nc2ccc3c(c2)OCCO3)C1 (configuration not stated),"inconclusive [inhibitor, single point]",–
C/C(=N\NC(=S)Nc1cccc(C)c1)c1ccco1,"inconclusive [inhibitor, single point]",–
COC(=O)c1cn(C(=O)c2ccco2)c2ccccc12,–,inconclusive: -5.78% [inhibitor]
C=CCn1c(-c2ccc(S(=O)(=O)N3CCOCC3)cc2)csc1=Nc1ccccc1,active: 6.51 µM,–
CCOC(=O)c1ccc(NC(=S)N(CCCN2CCCCC2)Cc2ccco2)cc1,"inconclusive [inhibitor, single point]",–
CC(C)COc1ccc(C(=O)Nc2onc3c2CCCC3)cc1,active: 23.1 µM,–
Cc1ccc(NC(=O)Cn2nc(C(F)(F)F)c3c2CCC3)cc1C,"inconclusive [inhibitor, single point]",–
O=C(Nc1ccc2sccc2c1)c1cccc(N2C(=O)CCC2=O)c1,inactive,–
CCc1ccccc1NS(=O)(=O)c1ccc2[nH]cc(C(=O)NC3CCCC3)c(=O)c2c1,"inconclusive [inhibitor, single point]",–
O=C(Cc1ccccc1)Nc1cccc(N2CCCC2)c1,–,inconclusive: -35.3% [inhibitor]
